Numbering of substitutions follows the chain as printed. Numbers in names are those of the source. ± gives the standard deviation of the averaged measurements. Laboratory Escherichia coli strains with one amino-acid change in an essential protein, pooled on minimal glucose agar with carbenicillin or gentamicin at twice the control MIC (plus kanamycin and chloramphenicol for the plasmids), 48 h. Fold change of barcode share against drug-free plates; higher = less susceptible. Active = above 20 in both replicates (the paper's putatively resistant). '<' = one read or none on drug, '>' = one read or none on a drug-free plate. Shares are relative, so most strains fall below 1 when a few take over. Listed are strains with at least 15 reads on both drug-free plates, and hits; most hits rest on fewer reference reads. Replicate rank correlation about 0.5. Edits are read from barcodes.
B1: gltX F183Q (protein)
chain: MKIKTRFAPSPTGYLHVGGARTALYSWLFARNHGGEFVLRIEDTDLERSTPEAIEAIMDGMNWLSLEWDEGPYYQTKRFDRYNAVIDQMLEEGTAYKCYCSKERLEALREEQMAKGEKPRYDGRCRHSHEHHADDEPCVVRFANPQEGSVVFDDQIRGPIEFSNQELDDLIIRRTDGSPTYNQCVVVDDWDMEITHVIRGEDHINNTPRQINILKALKAPVPVYAHVSMINGDDGKKLSKRHGAVSVMQYRDDGYLPEALLNYLVRLGWSHGDQEIFTREEMIKYFTLNAVSKSASAFNTDKLLWLNHHYINALPPEYVATHLQWHIEQENIDTRNGPQLADLVKLLGERCKTLKEMAQSCRYFYEDFAEFDADAAKKHLRPVARQPLEVVRDKLAAITDWTAENVHHAIQATADELEVGMGKVGMPLRVAVTGAGQSPALDVTVHAIGKTRSIERINKALDFIAERENQQ
B2: gltX L306W (protein)
chain: B1 chain with Q183F, L306W
B3: gltX L306Q (protein)
chain: B1 chain with Q183F, L306Q
B4: gltX I57P (protein)
chain: B1 chain with I57P, Q183F
B5: gltX L306A (protein)
chain: B1 chain with Q183F, L306A
B6: gltX I57W (protein)
chain: B1 chain with I57W, Q183F

Target: Escherichia coli (laboratory strain)
Experiment: barcode share on antibiotic plates over drug-free plates; higher = less susceptible
Settings: antibiotic: carbenicillin; 2× MIC (3.1 µg/mL)
Method: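 A pool of E. coli strains, each edited to carry one amino-acid change in an essential protein, was grown for 48 h on minimal glucose agar with or without antibiotic; strain barcodes were sequenced; mean of two replicates.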

| Protein | fold change of barcode share |
| --- | --- |
| B1 | 0.239 ± 0.046 |
| B2 | 0.204 ± 0.0068 |
| B3 | 0.184 ± 0.038 |
| B4 | 0.232 ± 0.0068 |
| B5 | 0.239 ± 0.14 |
| B6 | 0.481 ± 0.18 |

Same assay, conditions: antibiotic: gentamicin; 2× MIC (MIC 0.45 µg/mL)

| Protein | fold change of barcode share |
| --- | --- |
| B1 | 0.0145 ± 0.004 |
| B2 | 0.00624 ± 0.0024 |
| B3 | < 0.00695 |
| B4 | 0.176 ± 0.22 |
| B5 | 0.00569 ± 0.0042 |
| B6 | < 0.0107 |
